The values that follow come from the supplement of paper PMC11060735.

Where “and” joins values, the source holds several entries; their conditions need not be identical. Identical values can stand only once. Counter-ions that a name gives are not always drawn. The whole screen tested about 1,800 compounds, of which about 50 (3%) showed activity. Some of the results follow.
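Note: fibroblasts sorted 14 days after bleomycin, GFP+ and GFP− mixed 1:1 in 384-well plates (GFP− as in-well control), imaged after Hoechst and NucView530 staining, reference wells lacked compound.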

In the assay the test system is mouse p16Ink4a+/- lung fibroblasts (INKBRITE, bleomycin-injured). The assay is described as follows: percentage of GFP+ (p16Ink4a+) fibroblasts among all cells in well; higher = less depletion of p16Ink4a+ cells, active = 20 or less. The conditions noted are these: 1 µM; 3 days.
For the compound `CNC(=O)c1ccccc1Sc1ccc2c(/C=C/c3ccccn3)[nH]nc2c1` [Axitinib], the “percentage of GFP+” value is inactive: 21.7%.
Consider `C=CC/N=C1\C(=O)C=C2NC(=O)/C(C)=C/C=C\[C@H](OC)[C@@H](OC(N)=O)/C(C)=C/[C@H](C)[C@@H](O)[C@@H](OC)C[C@H](C)CC1=C2O` [Tanespimycin], for which the “percentage of GFP+” value is active: 11.8%.
The same measure for `CC(C)c1ccc(NC(=O)Cn2cnc3c2c(=O)n(C)c(=O)n3C)cc1`: inactive: 49.2%.
In the case of `CCCc1nc2c(C)cc(-c3nc4ccccc4n3C)cc2n1Cc1ccc(-c2ccccc2C(=O)O)cc1` [Telmisartan] it was inactive: 44.7%; in that of `Clc1ccc(C(c2ccccc2Cl)C(Cl)Cl)cc1` (configuration not stated) [Mitotane], inactive: 40.8%; in that of `C=C1C(n2cnc3c(O)nc(N)nc32)C[C@H](O)[C@H]1CO` (some centres not stated) [Entecavir Hydrate], inactive: 35.2%.
In the case of `O=C(Nc1ccc(S(=O)(=O)Nc2ccccc2Cl)c(Cl)c1)c1ccccn1`, the “percentage of GFP+” value is inactive: 42.8%.
Consider `CCc1c2c(nc3ccc(O)cc13)-c1cc3c(c(=O)n1C2)COC(=O)[C@]3(O)CC`, for which the “percentage of GFP+” value was inactive: 31.4%.
The same measure for `CC(C)N(CC[C@H](c1ccccc1)c1cc(CO)ccc1O)C(C)C` [5-hydroxymethyl Tolterodine]: inactive: 46.7%.
In the case of `CN(C)CCC[C@@]1(c2ccc(F)cc2)OCc2cc(C#N)ccc21` [Citalopram] it was inactive: 51.1%; in that of `Nc1ccccc1NC(=O)c1ccc(CNC(=O)OCc2cccnc2)cc1` [Entinostat], inactive: 32%; in that of `CNCc1cc(-c2ccccc2F)n(S(=O)(=O)c2cccnc2)c1`, inactive: 46.6%.
In the case of `Cn1c(=O)cc(N2CCC[C@@H](N)C2)n(Cc2ccccc2C#N)c1=O` [Alogliptin] it was inactive: 46.3%.
For `Cc1nc(-c2ccc(OCC(C)C)c(C#N)c2)sc1C(=O)O` [Febuxostat], the “percentage of GFP+” value is inactive: 42.1%.
Consider `Cc1cccc(-c2nn3c(c2-c2ccnc4ccc(C(N)=O)cc24)CCC3)n1`, for which the “percentage of GFP+” value was inactive: 40.8%.
Turning to `N#C/C(=C1/SC[C@@H](c2ccc(Cl)cc2Cl)S1)n1ccnc1` [Luliconazole], the “percentage of GFP+” value was inactive: 40.5%.
In the case of `C[C@@H]1C(=O)O[C@H]2CC34[C@H]5C[C@@H](C(C)(C)C)C36[C@@H](OC(=O)[C@@H]6O)O[C@@]4(C(=O)O5)[C@]21O` (some centres not stated) [Ginkgolide A] it was inactive: 43.5%; in that of `CCCS(=O)(=O)Nc1ccc(F)c(C(=O)c2c[nH]c3ncc(Cl)cc23)c1F`, inactive: 44.4%.
With `COc1ccc(-c2ccc3cc(C(=O)O)ccc3c2)cc1C12CC3CC(CC(C3)C1)C2` [Adapalene], the “percentage of GFP+” value was inactive: 39.3%.
Consider `O=S(=O)(O)CCSSCCS(=O)(=O)O` [Dimesna], for which the “percentage of GFP+” value was inactive: 40.4%.
In the case of `N#C[C@@H]1CCCN1C(=O)CNC12CC3CC(CC(O)(C3)C1)C2` [Vildagliptin] it was inactive: 47.1%; in that of `O=C(Nc1c[nH]nc1-c1nc2cc(CN3CCOCC3)ccc2[nH]1)NC1CC1`, inactive: 28.3%.
Regarding `CCN(CC)C(=O)[C@]1(c2ccccc2)C[C@@H]1CN` [Milnacipran], the “percentage of GFP+” value is inactive: 44.9%.
For `Cc1ncc(-c2ccnc(Nc3ccc(S(C)(=O)=O)cc3)n2)n1C(C)C`, the “percentage of GFP+” value was inactive: 30.3%.
On to `CC1(C)[C@@H](O[C@H]2O[C@H](C(=O)O)[C@@H](O)[C@H](O)[C@H]2O[C@@H]2O[C@H](C(=O)O)[C@@H](O)[C@H](O)[C@H]2O)CC[C@]2(C)[C@H]3C(=O)C=C4[C@@H]5C[C@@](C)(C(=O)O)CC[C@]5(C)CC[C@@]4(C)[C@]3(C)CC[C@@H]12` [Glycyrrhizin], for which the “percentage of GFP+” value was inactive: 53.3% and inactive: 38.4%.
Regarding `O=C(O)[C@]1(Cc2cccc(Nc3nccs3)n2)CC[C@@H](Oc2cccc(Cl)c2F)CC1`, the “percentage of GFP+” value is inactive: 36.2%.
In the case of `O=C(c1ccc(F)cc1)C1CCN(CCn2c(=O)[nH]c3ccccc3c2=O)CC1` [Ketanserin Tartrate] it was inactive: 49%; in that of `CCN(CC)CCOC(=O)C(c1ccccc1)c1ccccc1` [Adiphenine Hydrochloride], inactive: 36.2%.
As to `C[C@H]1C[C@@H]2[C@H]([C@@H](O)C[C@@]3(C)[C@H]2CC[C@]3(O)C(=O)CO)[C@@]2(C)C=CC(=O)C=C12` [Methylprednisolone], the “percentage of GFP+” value was inactive: 42.7%.
Take `Cc1nc(C#Cc2ccnc(Cl)c2)c(C)n1-c1ccc(OC(F)(F)F)cc1`: the “percentage of GFP+” value was inactive: 44.6%.
`Cc1nc(Nc2ncc(C(=O)Nc3c(C)cccc3Cl)s2)cc(N2CCN(CCO)CC2)n1` [Dasatinib]: the “percentage of GFP+” value is inactive: 24.1%.
In the case of `COc1ccc(-c2cc(=O)c3c(O)cc(O[C@@H]4O[C@H](CO[C@@H]5O[C@@H](C)[C@H](O)[C@@H](O)[C@H]5O)[C@@H](O)[C@H](O)[C@H]4O)cc3o2)cc1O` [Diosmin] it was inactive: 44.8%; in that of `CC(/C=C1\SC(=S)N(CC(=O)O)C1=O)=C\c1ccccc1` [Epalrestat], inactive: 48.9%.
In the case of `O=C(/C=C/c1ccccc1)NC(NC(=S)Nc1cccc2cccnc12)C(Cl)(Cl)Cl` (configuration not stated) [Salubrinal] it was inactive: 51.6%.
For the compound `CCCCOc1ccc(OCCCN2CCOCC2)cc1` [Pramocaine], the “percentage of GFP+” value is inactive: 48.7%.
In the case of `Cc1cc(NS(=O)(=O)c2ccc(N)cc2)no1` [Sulfamethoxazole] it was inactive: 44.1%; in that of `C[C@@H]1CC(=O)NN=C1c1ccc(NN=C(C#N)C#N)cc1` [Levosimendan], inactive: 37.7%; in that of `CC(C)C[C@H](NC(=O)[C@@H]1O[C@H]1C(=O)O)C(=O)NCCCCN=C(N)N`, inactive: 48.8%.
On to `NS(=O)(=O)c1cc2c(cc1Cl)NC(C(Cl)Cl)NS2(=O)=O` (configuration not stated) [Trichlormethiazide], for which the “percentage of GFP+” value was inactive: 40%.
As to `O=S(=O)(O)c1cc(O)ccc1O` [Ethamsylate], the “percentage of GFP+” value was inactive: 47%.
In the case of `O=C(Nc1ncc(SCCN2CCCC2)s1)[C@]1(c2ccc(S(=O)(=O)C3CC3)cc2)C[C@H]1C1CCCCC1` it was inactive: 37.1%; in that of `CN[C@@H]1[C@H](O[C@H]2[C@H](O[C@H]3[C@H](O)[C@@H](O)[C@@H](N=C(N)N)[C@@H](O)[C@@H]3N=C(N)N)O[C@@H](C)[C@@]2(O)C=O)O[C@H](CO)[C@H](O)[C@H]1O` [Streptomycin sulfate], inactive: 39.2%.
